According to PubChem BioAssay AID485344 (National Center for Advancing Translational Sciences (NCATS), 2010):
Hit rate of the full screen: of about 340,000 compounds, about 6,900 (2%) were called active. Cut-off read from the data, not from the text of the source: active = inhibition above about 30%; inactive = below that, where a call was filed. Only a part is listed here, and it is no random draw. Where no call is shown, the source filed none.

target: D(2) dopamine receptor (Homo sapiens) (UniProt P14416); test: HTS Assay for Allosteric Antagonists of the Human D2 Dopamine Receptor: Primary Screen for Antagonists; conditions: HEK293 TREx D2 cells, calcium flux, dopamine EC80; at 10 µM; stronger effect = higher value; note: 0% is about no effect
How it was run: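 Calcium mobilization kinetics were recorded at 1 s intervals in tetracycline-induced HEK293 T-REx D2 cells, first for 180 s after compound addition and then 180 s after EC80 dopamine.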

Chain of UniProt P14416 (P14416 whole entry, looked up): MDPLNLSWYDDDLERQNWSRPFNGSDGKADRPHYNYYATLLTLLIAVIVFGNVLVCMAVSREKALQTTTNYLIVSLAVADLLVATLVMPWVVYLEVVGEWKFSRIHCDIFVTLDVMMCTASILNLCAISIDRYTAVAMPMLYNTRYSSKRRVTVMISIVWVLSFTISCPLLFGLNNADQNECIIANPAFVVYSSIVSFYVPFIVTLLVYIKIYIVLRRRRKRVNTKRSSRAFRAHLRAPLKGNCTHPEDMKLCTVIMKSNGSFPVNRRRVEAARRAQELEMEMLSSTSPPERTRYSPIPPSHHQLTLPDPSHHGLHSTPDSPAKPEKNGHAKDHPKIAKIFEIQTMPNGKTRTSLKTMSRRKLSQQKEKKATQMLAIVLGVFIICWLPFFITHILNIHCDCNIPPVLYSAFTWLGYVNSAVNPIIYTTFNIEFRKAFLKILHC

| Structure (SMILES) | inhibition |
| --- | --- |
| COc1cc(Cl)c(C)cc1NC(=O)Cn1ncc2c1-c1cc(C)ccc1OC2 | -12.5% |
| Cc1cccc(CNC(=O)c2ccc3oc(=O)n(Cc4ccccc4)c3c2)c1 | 3.87% |
| O=S(=O)(c1ccc(Br)cc1)c1nnn2c1nc(NCc1ccc3c(c1)OCO3)c1sccc12 | 12.7% |
| COc1ccc(C(=O)Nc2nnc(SCc3cc(=O)n4cccc(C)c4n3)s2)cc1 | -5.62% |
| Cc1ccc(CNC(=O)C2CCN(Cc3nc(-c4cccc(Br)c4)oc3C)CC2)cc1 | 10.5% |
| CC(=O)c1cccc(NC(=O)C2CCN(S(=O)(=O)c3ccc4[nH]c(=O)ccc4c3)CC2)c1 | -22.2% |
| CCOc1ccc(-n2c(=O)c3c4c(sc3n(CC(=O)NC(C)CC)c2=O)CCCC4)cc1 (stereo not given) | -9.53% |
| Cc1cccc(-n2c(=O)c3ccccc3n(Cc3ccccc3)c2=O)c1 | -8.87% |
| Cc1ccc(-n2nc3ccc(NC(=O)COc4ccccc4)cc3n2)cc1Cl | -5.09% |
| CCc1cc2c(cc(C(=O)OC)n2Cc2nc(-c3ccc(C)cc3)oc2C)s1 | 4.33% |
| O=C(CSc1nc2c([nH]c3ccccc32)c(=O)n1-c1cccc(C(F)(F)F)c1)N1CCc2ccccc21 | 16.3% |
| CCOc1ccc(N(CC)C(=O)c2nn(-c3ccc(OC)cc3)c(=O)c3c2c2ccccc2n3C)cc1 | -10.3% |
| COc1ccc(OC)c(NC(=O)c2cc(C3CC3)nc3c2c(C)nn3-c2ccc(C)cc2)c1 | 0.559% |
| COc1ccc(-c2c(C)nn3c(C(F)(F)F)cc(-c4ccccc4)nc23)cc1 | 6.43% |
| O=C(NCc1ccco1)c1ccc2c(c1)N(Cc1c(F)cccc1Cl)C(=O)c1ccccc1S2 | -13.4% |
| O=C(Cn1cc(SCc2ccccc2F)c2ccccc21)N1CCCCC1 | 5.21% |
| Cc1cc(C)cc(NC(=O)Cc2c(C(=O)O)c(C)cn2C)c1 | 8.04% |
| COc1ccc(C(=O)NCc2ccc3c(c2)CCN3C(=O)c2ccc(C)cc2)cc1 | -1.51% |
| COc1ccc(Cn2ccc3nc(C)c(C(=O)N4CCN(c5ccc(OC)cc5)CC4)cc3c2=O)cc1 | 3.22% |
| Cc1ccc(S(=O)(=O)N(C)Cc2nc(-c3ccccc3)oc2C)cc1 | 18.1% |
| CCc1nc2nc(C)c(NS(=O)(=O)c3ccc(C)cc3)c(=O)n2[nH]1 | -0.0735% |
| CC1CCn2c(nc3cc(C(=O)NCc4ccc(OC(C)C)cc4)ccc32)C1 (stereo not given) | -6.34% |
| COc1cccc(N2CCN(C(=O)CCCCCn3c(=O)[nH]c4ccccc4c3=O)CC2)c1 | 21.7% |
| CCC(C(=O)NC1CCC(C)CC1)n1nc(C)c2sc3ccccc3c2c1=O (stereo not given) | -10.3% |

| Structure (SMILES) | inhibition |
| --- | --- |
| CCc1ccc(CNC(=O)c2cc3c(=O)n(Cc4cccs4)ccc3nc2C)cc1 | 14.7% |
| COc1ccccc1CNC(=O)C1CCN(S(=O)(=O)c2ccc3c(c2)CCCN3C(C)=O)CC1 | 4.98% |
| CC(C)c1ccc(NC(=O)CSc2nc3ccccc3nc2Cc2ccccc2)cc1 | -6.72% |
| CCc1ccccc1NC(=O)N1CC(C)Sc2ccccc21 (stereo not given) | -2.94% |
| CC(=O)c1ccccc1OCC(O)Cn1c(CO)nc2ccccc21 (stereo not given) | -14.9% |
| O=C(Nc1ccc(Br)cc1F)N1CC=C(c2c[nH]c3ccccc23)CC1 | -21.4% |
| CC(=O)c1ccc(NC(=O)c2nc(-c3ccccc3)n(-c3ccccc3)n2)cc1 | 9.92% |
| CCCc1nn2c(=O)cc(COC(=O)c3ccc(NC(=O)C4CCCCC4)cc3)nc2s1 | 3.2% |
| CC(C)Cc1nn2c(=O)cc(COC(=O)c3ccccc3NC(=O)C3CCCCC3)nc2s1 | -8.71% |
| Fc1ccc(-c2csc(=S)[nH]2)cc1 | active: 31% |
| Cc1ccc(S(=O)(=O)NCc2nc3cccnc3n2Cc2ccccc2Cl)c(C)c1 | -16.6% |
| CCc1nnc2c(Nc3ccc(N(CC)CC)cc3C)nc3ccccc3n12 | -8.27% |
| O=C(NCCO)C1(c2ccc(Cl)cc2)CCCC1 | active: 32.2% |
| COc1ccc(C)cc1NC(=O)c1cn(C)c(=O)c2cc(OC)c(OC)cc12 | -0.172% |
| COc1cccc(NS(=O)(=O)c2ccc3c(c2)N(C)C(=O)CC(=O)N3C)c1 | -8.69% |
| COc1ccc(-c2nc(Cn3c(SCc4cccc(C(F)(F)F)c4)nc4cccnc43)c(C)o2)cc1OC | -20.2% |
| COc1ccc(C(=O)c2sc3nc(-c4ccc(F)cc4)ccc3c2N)cc1 | 8.72% |
| Cc1oc2ncn(C)c(=O)c2c1C(=O)NCc1ccc(Cl)cc1 | -2.16% |
| Cn1c(Nc2ccc(Cl)cc2)cc(=O)n(C)c1=O | 6.05% |
| CC1=C(C(=O)Nc2ccc(C)cc2C)C(c2ccc(O)cc2)n2nc(SCC(=O)c3ccc(C)cc3)nc2N1 (stereo not given) | 11.8% |
| COc1ccc(-c2nn3c(=O)cc(CN4CCN(S(=O)(=O)c5ccc(C)cc5)CC4)nc3s2)cc1 | -22.1% |
| CCCNCC1C(Oc2ccc(Cl)cc2)C(=O)N1c1ccccc1C (stereo not given) | active: 50.9% |
| COc1ccc(C(=O)Nc2ccc(S(=O)(=O)N(Cc3ccccc3)c3ccccc3)cc2)cc1 | -2.37% |
| COc1ccc(OC)c(CNC(=O)C2CCCCN2S(=O)(=O)c2ccc(F)cc2)c1 (stereo not given) | 2.97% |

| Structure (SMILES) | inhibition |
| --- | --- |
| COc1ccc(CNC(=O)CN2C(=O)CCn3nc(-c4ccccc4)cc32)c(OC)c1 | -3.4% |
| COc1ccc(S(=O)(=O)Nc2cc3c(C(=O)OC(C)C)c(C)oc3c3ccccc23)cc1 | -3.44% |
| COc1ccc(N2C(=O)Cc3cc(OC)c(OC)cc3C2c2ccc(F)cc2)cc1 (stereo not given) | -3.11% |
| Cc1cccc(Cn2cc(C(=O)Nc3cc(F)ccc3F)ccc2=O)c1 | -21.7% |
| COc1ccc(C(CCN2CCCC(C)C2)c2c(OC)cc(OC)c3c2OC(=O)CC3c2cc(OC)c(OC)c(OC)c2)cc1 (stereo not given) | active: 52% |
| COc1ccc(-c2ccc(CCC(=O)O)n2-c2ccccc2O)cc1 | 3.97% |
| COc1ccc(NC(=O)CCc2nc3c(C)nn(-c4ccc(C)cc4)c3n(C)c2=O)cc1 | 1.24% |
| Cc1ccc(NC(=O)C2CCN(S(=O)(=O)c3c(C)noc3/C=C/c3cccs3)CC2)cc1F | -12.7% |
| CCOC(=O)C1=C(CN2CCN(C(=O)c3ccco3)CC2)NC(=O)NC1c1ccc(C)cc1 (stereo not given) | active: 36.7% |
| CCCS(=O)(=O)c1c(S(=O)(=O)CCC)c2cc(CC)ccn2c1C(=O)c1ccc(Cl)cc1 | 17.4% |
| O=C(CSc1nnc(-c2cccnc2)n1Cc1ccccc1)NCc1ccccc1 | active: 34.5% |
| COc1ccc(Cl)cc1CNCCSc1nnnn1-c1ccccc1 | 6.63% |
| Cc1ccc(C(=O)O)cc1NC(=O)c1cccs1 | active: 43.8% |
| COc1ccc(C2NC(=O)N(C)C3=C2C(=O)N(c2cccc(C(=O)O)c2)C3)cc1 (stereo not given) | 25% |
| O[Si](CCCN1CCCCC1)(c1ccc(F)cc1)C1CCCCC1 (stereo not given) | active: 124% |
| COc1ccccc1-c1cc(C(=O)Nc2cc(OC)c(OC)c(OC)c2)no1 | 16.4% |
| CCN(CC)CCCNC(=O)c1nn(C)c2c1CSc1ccccc1-2 | 25.4% |
| CCN(CC)c1ccc(C(=O)NCc2ccc3c(c2)CCN3C(=O)c2ccc(F)cc2)cc1 | 12.6% |
| Cc1ccc(-n2nc(C)c3c(C(=O)NCCc4ccccc4)cc(C)nc32)cc1 | 9.96% |
| Cc1ccc(CNC(=O)c2ccc3c(c2)nc2n3CCOC2)cc1 | 0.927% |
| COc1ccc(Cl)cc1N(C)C(=O)c1cc2c(=O)oc3ccc(C)cc3c2s1 | 14.7% |
| COc1ccc(Cc2nc3c4cnn(-c5ccccc5F)c4ncn3n2)cc1 | 15.8% |
| CCc1ccccc1NC(=O)CN1CCCN(Cc2cc(C)ccc2C)S1(=O)=O | 12.5% |
| Cc1cc(=O)oc2cc(OC(=O)c3cncc(Br)c3)ccc12 | active: 30.8% |

| Structure (SMILES) | inhibition |
| --- | --- |
| CCCCNC(=O)c1cc(-c2ccc(OC)cc2)nc2n[nH]c(-c3cccc([N+](=O)[O-])c3)c12 | -18.1% |
| CCc1ccc(NC(=O)CCNS(=O)(=O)c2ccc3c(c2)oc(=O)n3C)cc1 | -5.33% |
| Cc1ccnc2c1ccc1c(C)ccnc12 | active: 43.2% |
| CCOC(=O)c1ccccc1NC(=O)CN1CCCN(Cc2cccc(Cl)c2)S1(=O)=O | -10.3% |
| CCOc1ccccc1NC(=O)CCNS(=O)(=O)c1cccc2nonc12 | 11.3% |
| CC(C)Oc1ccc(C(=O)NCC(c2ccc(N(C)C)cc2)N2CCCC2)cc1 (stereo not given) | 2.5% |
| Cc1ccc(C)c(NC(=O)Cn2cc(C(=O)c3cccs3)c3ccccc32)c1 | 14.1% |
| COc1cc(C(=O)Nc2ccc3c(c2)N(C2CCCC2)C(=O)c2ccccc2S3)cc(OC)c1OC | 4.5% |
| CCOc1ccccc1NC(=O)C1CCCN1S(=O)(=O)c1ccc2c(c1)C(C)(C)C(=O)N2C (stereo not given) | -1.46% |
| Cc1ccc(NS(=O)(=O)c2cc(-c3cnc(C4CC4)o3)ccc2C)cc1Cl | -8.85% |
| Nc1c(C(=O)Nc2ccccc2F)sc2nc3c(cc12)CCCCCC3 | 11% |
| COc1ccc(NC(=O)N2CCOc3ccc(Cl)cc32)cc1 | -22.3% |
| Cc1ccc(C(=O)COC(=O)c2cccc(NC(=O)c3ccc(Cl)cc3Cl)c2)cc1 | 19.9% |
| CCC(C(=O)NCc1ccc(OC)c(OC)c1)n1nc(C)c2c(C)n(-c3ccc(C)cc3)nc2c1=O (stereo not given) | -7.18% |
| CCOC(=O)c1c(NC(=O)c2cc3nc(-c4ccc(Br)cc4)cc(C(F)(F)F)n3n2)sc(C(C)=O)c1C | 17.4% |
| CCn1cc(C(=O)NCCCOC)c(=O)c2cc(S(=O)(=O)N3CCCC3)ccc21 | -13.1% |
| Cc1cccc(C(=O)n2nc(-c3cccnc3)nc2NCc2ccccc2)c1 | -7.19% |
| Cc1ccc(C(=O)NCCc2ccc(S(N)(=O)=O)cc2)cc1-n1cnc2cccnc21 | 6.36% |
| O=C(CCCCn1c(=O)c2ccccc2n(CC(=O)Nc2ccc(F)cc2F)c1=O)NCCc1ccccc1 | 8.66% |
| COC(=O)c1c(NC(=O)Cc2coc3ccc(C(C)C)cc23)sc2c1CCC2 | -10.2% |
| O=S(=O)(NCC(c1ccco1)S(=O)(=O)c1cccs1)c1ccc(Cl)cc1 (stereo not given) | 1.82% |
| O=c1oc2c3c(ccc2c2ccccc12)OCN(Cc1ccccc1Cl)C3 | 17.3% |
| CCOc1ccc(C(=O)c2oc3ccccc3c2NC(=O)c2cc(-c3ccc(Cl)cc3)on2)cc1 | -2.03% |
